T1: RBFOX1 RRM (Homo sapiens, UniProt Q9NWB1 109-208)
T1 sequence: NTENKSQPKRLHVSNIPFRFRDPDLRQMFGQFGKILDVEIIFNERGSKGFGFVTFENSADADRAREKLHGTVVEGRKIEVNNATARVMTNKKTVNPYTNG

B1: ACCCCAC (DNA:RNA)
RNA: GGGAGACCGGAAUUCAGAUUGUCCACCCCACUUAAAUCCCGUCGUAGCCACCA
DNA 1: CAATCTGAATTCCGGTCTCCC
DNA 2: TGGTGGCTACGACGGGATT
B2: UGGCACC (DNA:RNA)
RNA: B1 RNA with A25U, C26G, C27G, C29A, A30C
DNA 1: CAATCTGAATTCCGGTCTCCC
DNA 2: TGGTGGCTACGACGGGATT
B3: UAUGAUA (DNA:RNA)
RNA: GGGAGACCGGAAUUCAGAUUGUCCUAUGAUAUUAAAUCCCGUCGUAGCCACCA
DNA 1: CAATCTGAATTCCGGTCTCCC
DNA 2: TGGTGGCTACGACGGGATT
B4: AUGGUCC (DNA:RNA)
RNA: B1 RNA with C26U, C27G, C28G, C29U, A30C
DNA 1: CAATCTGAATTCCGGTCTCCC
DNA 2: TGGTGGCTACGACGGGATT
B5: GCGCCCU (DNA:RNA)
RNA: B1 RNA with A25G, C27G, A30C, C31U
DNA 1: CAATCTGAATTCCGGTCTCCC
DNA 2: TGGTGGCTACGACGGGATT
B6: UCAUGUU (DNA:RNA)
RNA: B3 RNA with A26C, U27A, G28U, A29G, A31U
DNA 1: CAATCTGAATTCCGGTCTCCC
DNA 2: TGGTGGCTACGACGGGATT
B7: GGCAGAG (DNA:RNA)
RNA: B1 RNA with A25G, C26G, C28A, C29G, C31G
DNA 1: CAATCTGAATTCCGGTCTCCC
DNA 2: TGGTGGCTACGACGGGATT
B8: CUCAAGU (DNA:RNA)
RNA: B1 RNA with A25C, C26U, C28A, C29A, A30G, C31U
DNA 1: CAATCTGAATTCCGGTCTCCC
DNA 2: TGGTGGCTACGACGGGATT
B9: UAAGCCU (DNA:RNA)
RNA: B3 RNA with U27A, A29C, U30C, A31U
DNA 1: CAATCTGAATTCCGGTCTCCC
DNA 2: TGGTGGCTACGACGGGATT

The values below come from publication PMC9911399, “Two distinct binding modes provide the RNA-binding protein RbFox with extraordinary sequence specificity”.

Substitutions are numbered along the chain they refer to; changes in the protein carry UniProt numbers. The list shows a part of the results.

The experiment addresses T1, RBFOX1 RRM. The experiment in a line: EMSA; HiTS-Eq, 1 nM pool, 10 min; buffer printed only for the single-RNA assays: 10 mM Tris pH 7.5, 150 mM NaCl, 3.4 mM EDTA, 0.001% NP-40, 30 C. To be noted: tags: His6 N-terminal (pET28a); label: 5' 32P. The procedure, abridged: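 A pool of RNA with 7 randomized nucleotides, 5′-radiolabelled and with DNA-annealed flanks, was equilibrated at 1 nM for 10 min in 50 µL with purified RbFox RRM, wild type or mutant, across increasing protein concentrations. Free RNA was separated by 8% native PAGE, excised, reverse-transcribed, barcoded by PCR and sequenced. Relative association constants were obtained from read-count changes of each RNA species versus the control reaction and normalised to the cognate motif.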
(In general: A gel shift assay detects complexes by their altered migration in electrophoresis.)
Turning to B1, the binding signal is 0.0014 KA relative to UGCAUGU.
Then B2, with 0.0134 KA relative to UGCAUGU.
On to B3, for which the binding signal is 0.0117 KA relative to UGCAUGU.
Then B4, with 0.0104 KA relative to UGCAUGU.
In the case of B5 it was 0.0107 KA relative to UGCAUGU.
As to B6, the binding signal was 0.0106 KA relative to UGCAUGU.
Then B7, with 0.0178 KA relative to UGCAUGU; and B8, with 0.00359 KA relative to UGCAUGU.
Turning to B9, the binding signal is 0.00724 KA relative to UGCAUGU.
